One assay has as its system HSkMC. Briefly: cytotoxicity call (relative viability < 0.9). Particulars: 10 µM.
For a further assay, the system named is HepG2. Briefly: cytotoxicity call (relative viability < 0.9). Particulars: 10 µM.
A further assay has as its system S. aureus RN4220. Put plainly: growth inhibition call (relative growth <= 0.2). Particulars: 50 µM.

This is one part of the list.

Regarding `C[C@@H]1CN([C@H](C)CO)S(=O)(=O)c2ccc(C#CC(C)(C)O)cc2O[C@H]1CN(C)Cc1ccccc1`, the cytotoxicity call in the assay on HSkMC and with HepG2 was “inactive” throughout. Also, the growth inhibition call in the assay on S. aureus RN4220 is “inactive”.
Regarding `C[C@@H]1CN([C@H](C)CO)C(=O)c2cc(N(C)C)ccc2O[C@@H](C)CCCCO[C@@H]1CN(C)S(C)(=O)=O`, the cytotoxicity call in the assay on HSkMC and with HepG2 was “inactive” throughout. Moreover, the growth inhibition call with S. aureus RN4220 is “inactive”.
Regarding `CCCC(=O)OC1(C(=O)CO)CCC2C3CCC4=CC(=O)CCC4(C)C3C(O)CC21C` (stereo not drawn), the cytotoxicity call in the assay on HSkMC and with HepG2 was “inactive” in each case. Further, the growth inhibition call in the assay with S. aureus RN4220 is “inactive”.
For the molecule `CC(CCC(=O)O)C1CCC2C3CCC4CCCCC4(C)C3CCC12C` (stereo not drawn), the cytotoxicity call in the assay on HSkMC and in the assay with HepG2 was “inactive” each time. Also, in the assay on S. aureus RN4220, the growth inhibition call was “inactive”.
For the molecule `Cc1ccc(S[C@]2(C(=O)NCc3ccccc3)CC(=O)N(Cc3ccccc3Cl)[C@@H]2c2ccc(CO)cc2I)cc1`, the cytotoxicity call in the assay with HSkMC and with HepG2 was “inactive” each time. Moreover, in the assay with S. aureus RN4220, the growth inhibition call is “inactive”.
Consider `COCC(=O)N[C@H]1C=C[C@H](CC(=O)N2CCCCC2)O[C@H]1CO`, for which the cytotoxicity call in the assay on HSkMC and in the assay on HepG2 was “inactive” throughout. The growth inhibition call in the assay with S. aureus RN4220 is “inactive”.
As to `CN(C)CC#Cc1ccc([C@H]2[C@@H](CO)N3C(=O)CN(C(=O)c4cccnc4)C[C@H]23)cc1`, the cytotoxicity call in the assay with HSkMC and with HepG2 was “inactive” in each case. In addition, the growth inhibition call with S. aureus RN4220 was “inactive”.
In the case of `C[C@H]1CCCCO[C@@H](CN(C)C)[C@@H](C)CN([C@@H](C)CO)C(=O)c2cc(NS(=O)(=O)c3cn(C)cn3)ccc2O1`, the cytotoxicity call with HSkMC and in the assay with HepG2 was “inactive” in each case. Further, in the assay on S. aureus RN4220, the growth inhibition call was “inactive”.
Consider `C[C@H]1CN([C@@H](C)CO)C(=O)Cc2cc(NC(=O)CCCCCC(=O)Nc3ccccc3N)ccc2O[C@@H]1CN(C)C(=O)Nc1ccc(C(F)(F)F)cc1`, for which the cytotoxicity call in the assay with HSkMC and in the assay with HepG2 was “inactive” throughout. Further, in the assay with S. aureus RN4220, the growth inhibition call is “inactive”.
`C[C@H]1CCCCO[C@@H](CN(C)Cc2ccc(C(F)(F)F)cc2)[C@@H](C)CN([C@@H](C)CO)C(=O)c2cc(NC(=O)NC3CCCCC3)ccc2O1`: the cytotoxicity call in the assay with HSkMC and with HepG2 was “active” in each case. Further, the growth inhibition call in the assay with S. aureus RN4220 is “inactive”.
Take `COc1ccc(CNC(=S)NCCO)cc1`: the cytotoxicity call with HSkMC and in the assay with HepG2 was “inactive” each time. In addition, in the assay with S. aureus RN4220, the growth inhibition call is “inactive”.
In the case of `Cc1ccc(S(=O)(=O)Nc2ccc3c(c2)C(=O)N([C@H](C)CO)C[C@H](C)[C@@H](CN(C)S(C)(=O)=O)O3)cc1`, the cytotoxicity call with HSkMC and with HepG2 was “inactive” each time. Also, the growth inhibition call in the assay with S. aureus RN4220 is “inactive”.
Turning to `C1CCC(C(C[C@H]2CCCCN2)C2CCCCC2)CC1`, in the assay with HSkMC, the cytotoxicity call was “inactive”. Also, in the assay with HepG2, the cytotoxicity call was “active”. In addition, the growth inhibition call with S. aureus RN4220 was “active”.
For `C[C@@H]1CN([C@H](C)CO)C(=O)c2cccc(NC(=O)C3CCOCC3)c2O[C@@H]1CN(C)S(=O)(=O)c1cccs1`, the cytotoxicity call in the assay on HSkMC and with HepG2 was “inactive” throughout. The growth inhibition call in the assay with S. aureus RN4220 is “inactive”.
With `COCC(=O)Nc1ccc2c(c1)C(=O)N(C)C[C@@H](OC)[C@@H](C)CN(C(=O)c1ccccc1F)[C@H](C)CO2`, the cytotoxicity call in the assay on HSkMC and in the assay on HepG2 was “inactive” each time. Besides, in the assay with S. aureus RN4220, the growth inhibition call was “inactive”.
Consider `C[C@H]1CCCCO[C@H](CN(C)S(=O)(=O)c2cn(C)cn2)[C@@H](C)CN([C@@H](C)CO)C(=O)c2cc(NS(=O)(=O)c3ccccc3)ccc2O1`, for which the cytotoxicity call with HSkMC and in the assay with HepG2 was “inactive” throughout. Further, the growth inhibition call in the assay on S. aureus RN4220 was “inactive”.
For the molecule `CCN1C[C@]23CN(Cc4cnn(C)c4)C[C@@H](C[C@H]2S1(=O)=O)O3`, the cytotoxicity call in the assay with HSkMC and in the assay with HepG2 was “inactive” throughout. For the same molecule, the growth inhibition call with S. aureus RN4220 is “inactive”.
For the molecule `COc1ccc(S(=O)(=O)Nc2ccc3c(c2)C(=O)N([C@H](C)CO)C[C@@H](C)[C@H](CN(C)S(=O)(=O)c2cccs2)O3)cc1`, the cytotoxicity call in the assay on HSkMC and in the assay on HepG2 was “inactive” each time. Further, the growth inhibition call in the assay with S. aureus RN4220 was “inactive”.
As to `O=C(O)c1ccc(C(=O)O)nc1`, the cytotoxicity call with HSkMC and with HepG2 was “inactive” throughout. The growth inhibition call in the assay with S. aureus RN4220 is “inactive”.
Take `CNC(=N)NCCC[C@@H](N)C(=O)O`: the cytotoxicity call with HSkMC and in the assay on HepG2 was “inactive” throughout. Moreover, the growth inhibition call in the assay with S. aureus RN4220 is “inactive”.
In the case of `Cn1c([C@H]2C=C(C(=O)N[C@H]3c4ccccc4C[C@H]3O)O[C@@H](OCCCCO)C2)cc(=O)n1-c1ccccc1`, the cytotoxicity call with HSkMC and in the assay on HepG2 was “inactive” in each case. Also, the growth inhibition call in the assay on S. aureus RN4220 is “inactive”.
In the case of `C[C@@H]1CN([C@@H](C)CO)C(=O)Cc2cc(NC(=O)CCCCCC(=O)Nc3ccccc3N)ccc2O[C@H]1CN(C)S(C)(=O)=O`, the cytotoxicity call with HSkMC and in the assay with HepG2 was “inactive” throughout. In the assay with S. aureus RN4220, the growth inhibition call is “inactive”.
`C[C@@H]1CN([C@@H](C)CO)C(=O)c2cc(NS(C)(=O)=O)ccc2O[C@@H](C)CCCCO[C@@H]1CN(C)Cc1ccc(C(F)(F)F)cc1`: the cytotoxicity call in the assay with HSkMC and in the assay with HepG2 was “inactive” each time. Moreover, in the assay on S. aureus RN4220, the growth inhibition call is “inactive”.
Regarding `CCCCC(=O)N1c2ccccc2[C@H](Nc2ccccc2)C[C@@H]1C`, the cytotoxicity call in the assay with HSkMC and with HepG2 was “inactive” throughout. The growth inhibition call with S. aureus RN4220 was “inactive”.
Consider `Cc1ccc(S(=O)(=O)N[C@H]2CC[C@H](CC(=O)N3CCC(Cc4ccccc4)CC3)O[C@@H]2CO)cc1`, for which the cytotoxicity call with HSkMC and with HepG2 was “inactive” each time. Also, the growth inhibition call with S. aureus RN4220 is “inactive”.
`CC1(C)SC2C(NC(=O)C(N)c3ccccc3)C(=O)N2C1C(=O)[O-].[Na+]` (stereo not drawn): the cytotoxicity call in the assay on HSkMC and with HepG2 was “inactive” throughout. Moreover, the growth inhibition call in the assay on S. aureus RN4220 is “inactive”.
As for `C[C@@H]1CCCCO[C@@H](CN(C)CC2CCCCC2)[C@H](C)CN([C@@H](C)CO)C(=O)c2cc(NC(=O)C3CCCCC3)ccc2O1`, the cytotoxicity call in the assay on HSkMC and with HepG2 was “inactive” throughout. In addition, in the assay with S. aureus RN4220, the growth inhibition call is “inactive”.
For `Cc1ccc(S(=O)(=O)N(C)C[C@@H]2Oc3ncc(C#CC4(O)CCCC4)cc3C(=O)N([C@H](C)CO)C[C@@H]2C)cc1`, the cytotoxicity call with HSkMC and in the assay with HepG2 was “inactive” throughout. For the same molecule, the growth inhibition call with S. aureus RN4220 was “inactive”.
For `COc1ccc(NC(=O)N(C)C[C@@H]2Oc3ccc(NC(=O)CCCN(C)C)cc3C(=O)N([C@@H](C)CO)C[C@H]2C)cc1`, the cytotoxicity call in the assay on HSkMC and in the assay on HepG2 was “inactive” in each case. In the assay with S. aureus RN4220, the growth inhibition call is “inactive”.
Regarding `C[C@@H]1CN([C@@H](C)CO)C(=O)c2cc(NC(=O)C3CC3)ccc2O[C@H]1CN(C)S(=O)(=O)c1ccc(Cl)cc1`, the cytotoxicity call in the assay with HSkMC and in the assay with HepG2 was “inactive” in each case. Further, the growth inhibition call in the assay on S. aureus RN4220 is “inactive”.
As for `C[C@@](Cc1ccccc1)(NC(=O)CN)c1ccccc1`, the cytotoxicity call in the assay with HSkMC and with HepG2 was “inactive” in each case. Also, the growth inhibition call in the assay on S. aureus RN4220 is “inactive”.
For the molecule `C[C@@H]1CCCCO[C@@H](CN(C)C(=O)Nc2ccc(C(F)(F)F)cc2)[C@H](C)CN([C@@H](C)CO)C(=O)c2cc(NC(=O)CCC(F)(F)F)ccc2O1`, the cytotoxicity call in the assay on HSkMC and with HepG2 was “inactive” each time. Moreover, the growth inhibition call in the assay with S. aureus RN4220 is “inactive”.
As for `CCCCC(=O)N(Cc1ccc(-c2ccccc2-c2nn[nH]n2)cc1)C(C(=O)O)C(C)C` (stereo not drawn), the cytotoxicity call in the assay on HSkMC (human skeletal muscle cells) and in the assay with HepG2 was “inactive” in each case. For the same molecule, the growth inhibition call with S. aureus RN4220 is “inactive”.
Regarding `CCC1(O)CC2CN(CCc3c([nH]c4ccccc34)C(C(=O)OC)(c3cc4c(cc3OC)N(C=O)C3C(O)(C(=O)OC)C(OC(C)=O)C5(CC)C=CCN6CCC43C65)C2)C1.O=S(=O)(O)O` (stereo not drawn), the cytotoxicity call with HSkMC is “inactive”. Moreover, the cytotoxicity call in the assay on HepG2 is “active”. The growth inhibition call in the assay on S. aureus RN4220 was “inactive”.
Consider `COc1ccc(S(=O)(=O)Nc2ccc3c(c2)C(=O)N([C@@H](C)CO)C[C@@H](C)[C@H](CN(C)Cc2ccc4c(c2)OCO4)OCCCC[C@@H](C)O3)cc1`, for which the cytotoxicity call with HSkMC and in the assay on HepG2 was “inactive” in each case. Further, in the assay on S. aureus RN4220, the growth inhibition call is “inactive”.
Consider `C[C@@H]1CN([C@H](C)CO)C(=O)c2cc(C#CC3CCCC3)cnc2O[C@H]1CN(C)C(=O)Cc1ccccn1`, for which the cytotoxicity call with HSkMC and in the assay with HepG2 was “inactive” throughout. In addition, the growth inhibition call with S. aureus RN4220 is “inactive”.

Source of the values: the antibiotic and cytotoxicity screens of Wong et al. (2023).
